# Publication PMC5404276
# T1: E. coli cysteine desulfurase (IscS) (E. coli), P0A6B7
# T1 chain: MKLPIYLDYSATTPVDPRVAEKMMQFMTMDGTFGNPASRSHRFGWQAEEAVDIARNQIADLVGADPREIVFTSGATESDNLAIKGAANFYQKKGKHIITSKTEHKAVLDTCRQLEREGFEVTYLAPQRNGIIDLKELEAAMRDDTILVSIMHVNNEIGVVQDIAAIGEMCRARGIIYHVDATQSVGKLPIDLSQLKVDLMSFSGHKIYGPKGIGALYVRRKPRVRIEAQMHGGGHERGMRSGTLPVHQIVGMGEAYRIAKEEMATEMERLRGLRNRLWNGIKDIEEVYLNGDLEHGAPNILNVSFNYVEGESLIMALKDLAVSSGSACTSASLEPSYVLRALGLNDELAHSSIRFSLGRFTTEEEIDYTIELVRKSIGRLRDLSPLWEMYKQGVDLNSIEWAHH
# B1: E. coli cysteine desulfurase (IscS), P0A6B7 1-404 (enzyme)
# chain: T1 chain
# Molecular target: T1, E. coli cysteine desulfurase (IscS) (E. …)
# Assay: amino acid analysis + other: SAXS
# Conditions: remark: other sources report otherwise
binder,measurement,value
B1,stoichiometry N,2
